According to ChEMBL document CHEMBL4888484, “Replenishing the malaria drug discovery pipeline: Screening and hit evaluation of the MMV Hit Generation Library 1 (HGL1) against asexual blood stage Plasmodium falciparum ,using a nano luciferase reporter read-out” (2022):
In all, about 150,000 compounds went through this assay and about 540 (0.36%) showed an effect of 50% or more. The list shows a part of the results.

Test system: Plasmodium falciparum
Test: Primary screen in NF54 nanoGlo assay, in single point, at 2uM, 72h; a lower Z score goes with more inhibition
Assay type: functional, Erythrocyte
Settings: timepoint 72 hour

Row | Compound | % Inhibition [%] | Z score
1 | CN(C(=O)c1cc(F)cc(Br)c1F)[C@H]1C[C@@H](C(N)=O)C1 | -6 | 1.2
2 | C[C@@H](Cn1cc(Br)cn1)Nc1cnn(C(C)(C)C)c1 | -9 | 1.4
3 | CC1CC(C)N(C(=O)CC(N)=O)CC1CNC(=O)OC(C)(C)C (stereo not drawn) | 2 | -0.39
4 | C[C@@H](CC(C)(C)C)NC(=O)N1CC(=O)N(C2CC2)C1 | -3 | 0.52
5 | COCCc1noc(-c2cc(CC(C)C)nn2C)n1 | 0 | 0.06
6 | Cc1cc(C(=O)NS(=O)(=O)CCC2CCCCC2)ns1 | -11 | 0.91
7 | CC(C1CC1)N(C)C(=O)C1CC(=O)N(C2CCCC2)C1 (stereo not drawn) | -2 | 0.31
8 | Cc1noc(COC(=O)c2cccc(Oc3ccccc3)c2)n1 | -2 | 0.25
9 | CCc1ncsc1NC(=O)c1nc(C)ncc1Cl | 4 | -0.8
10 | CC(C)[C@@H](C#N)NC(=O)[C@H]1Cc2ccccc2O[C@@H]1C(F)(F)F | -2 | 0.33
11 | CCc1nccn1CCN1CC[C@H](n2nc(C)cc2C)C1 | -6 | 0.88
12 | Cc1noc([C@]23CN(Cc4cccnc4)CC[C@H]2CN(C(=O)c2cccnc2)C3)n1 | -3 | 0.5
13 | [O-][S+]1CCN(c2ncnc3scc(-c4ccccc4)c23)CC1 | -7 | 0.93
14 | O=C1CCN(C(=O)Cn2cc(C3CC3)cn2)[C@H]2CCCN12 | 0 | -0.06
15 | COc1cnc(NC(=O)N2CC=C(C(F)(F)F)CC2)s1 | -5 | 0.91
16 | O=C(N[C@@H](Cc1ccccc1)c1ccccc1)c1cc2n(n1)CCN(Cc1ccc(F)cc1)C2=O | -3 | 0.35
17 | O=C(Nc1c(F)cccc1OCc1ccccc1)N[C@H]1CCOC1 | 33 | -3.73
18 | CC[C@@H](c1ccc(F)cc1)N1CC[S+]([O-])CC1 | -3 | 0.54
19 | O=C(CCC(=O)N1CCC[C@H]1c1cccc(Br)c1)c1ccccc1 | 16 | -2.03
20 | CC(C)c1nn(C)cc1NC(=O)NCCF | 4 | -0.66
21 | OCCNc1ncncc1-c1nc(C2CCCCC2)no1 | -14 | 1.59
22 | O=C(NCCN1CCCCC1)c1csc(CN(CCC(c2ccccc2)c2ccccc2)Cc2ccc(F)cc2)n1 | -5 | 0.7
23 | CCC(CO)NC(=O)c1nc2ccc(NC(CC)CO)nc2s1 (stereo not drawn) | -13 | 2.33
24 | Cc1cc(C(=O)N2CCC[C@H](c3nccn3CC(N)=O)C2)c2ccccc2n1 | -6 | 0.79
